# Test results taken from PubChem BioAssay AID686979 (National Center for Advancing Translational Sciences (NCATS), 2013).
# Among all 420,000 compounds or so, about 50,000 (12%) were called active. The inconclusive results got no clear call from the source; some entries with a clear call stand among them for comparison. Calls follow the shape of the dose curve; as a rule, active = well fitted inhibition curve with a large enough effect; inconclusive = small, poorly fitted or top-dose-only effect; inactive = flat fitted curve, though single readings scatter. No potency is given beside an inconclusive call; the fits are too rough.
# Assay: qHTS for Inhibitors of human tyrosyl-DNA phosphodiesterase 1 (TDP1): qHTS in cells in presence of CPT; also: nearly all actives have a fitted effect of over 55% in size
# Conditions: chicken DT40 Tdp1-/-;hTDP1 cells + 20 nM CPT, ATP luminescence, 48 h; activity change, negative = growth inhibition: at 46.2 µM (top of the series)
# Summary of the method: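 Chicken DT40 Tdp1-/- cells stably complemented with human TDP1 were seeded at 400 cells/well in medium containing 20 nM camptothecin, exposed to pin-transferred compounds, and grown at 37 °C for at least 48 hr. Viability was read as ATP luminescence.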
# % is scaled to controls: 0 for no effect and ±100 for the full control effect; potency is read from the fitted curve at half-maximal effect; tags tell the direction and shape of the fitted curve.
SMILES,Potency,"activity change, negative = growth inhibition"
Nc1nc(Nc2ccccc2F)sc1C(=O)c1ccccc1,active: 11.6 µM,–
O=C(O)c1ccccc1-c1ccccc1C(=O)NNc1ccc([N+](=O)[O-])cc1,inactive,–
CCn1c(=NC(=O)C2COc3ccccc3O2)sc2c(OC)ccc(OC)c21 (stereo not given),"inconclusive [inhibitor, single point]",–
Cc1ccc2[nH]c(-c3ccccc3)cc(=O)c2c1,active: 0.82 µM,–
COc1ccc(CNc2oc(/C=C/c3cccc(OC)c3)nc2C#N)cc1,active: 23.1 µM,–
COc1ccc(CNc2nc3ccccc3n2CCN2CCCCC2)c(OC)c1,active: 18.4 µM,–
COc1cc(C)ccc1OCc1cc(C(=O)N2CCC(c3ccc(F)cc3)C2)no1 (stereo not given),"inconclusive [inhibitor, single point]",–
CC1CCC(CN2CCN=C2Nc2ccccc2)CC1 (stereo not given),"inconclusive [inhibitor, single point]",–
CN(Cc1ccccc1)C(=O)c1cccc(NC(=O)c2nsc3ccccc23)c1,"inconclusive [inhibitor, single point]",–
COc1ccc(/C=C/C(=O)N(CC(C)C)CC(C)C)cc1Br,active: 16.4 µM,–
CCOCCCNC(=O)c1ccc(N2CCCC2)c(NS(=O)(=O)c2ccc(C)cc2)c1,"inconclusive [inhibitor, single point]",–
O=C(NC1=NCCS1)c1ccc(Cl)c(S(=O)(=O)N2CCc3ccccc32)c1,"inconclusive [inhibitor, single point]",–
COC(=O)c1ccc(COc2ccc(C(=O)c3ccccc3)cc2)o1,"inconclusive [inhibitor, single point]",–
CCc1nnc(N/N=C/c2c(F)cccc2Cl)n1N,"inconclusive [inhibitor, single point]",–
c1ccn(-c2ncnc3sc4c(c23)CCCC4)c1,inactive,–
CCOc1ccc(CCNC(=O)c2nnc(CS(=O)(=O)c3ccccc3)o2)cc1OCC,–,inconclusive: -0.199% [inhibitor]
Cc1ccn2c(NC3CCCC3)c(-c3ccsc3)nc2c1,"inconclusive [inhibitor, full curve, poor fit]",–
CN1CCN(c2ccc(S(=O)(=O)N3CCCCC3)cc2NC(=O)c2ccc3ccccc3c2)CC1,"inconclusive [inhibitor, single point]",–
CCOc1ccc(-n2c(C)cc(/C=N\NC(=O)CC(=O)NC3CCCCC3)c2C)cc1,active: 18.4 µM,–
CCCCC1CCC(c2nc(-c3ccccn3)no2)CC1 (stereo not given),–,inconclusive: -33.7% [inhibitor]
